Our source for the Kd values is patent publication US20250019440A1 (Zymeworks, published 2025).

To fix the notation:
B1: v38522 (other)
heavy 1: [about 120 residues not shown]AAAKEAAAKEVQLVESGGGLVQPGGSLRLSCAASGVTFNYYGMSWIRQAPGKGLEWVASITSSGGRIYYPDSVKGRFTISRENTQKTLYLQMNSLRAEDTAVYYCTLDGRDGWVAYWGQGTLVTVSSASTKGPSVFPLAPSSKSTSGGTAALGCLVKDYFPEPVTVSWNSGALTSGVHTFPAVLQSSGLYSLSSVVTVPSSSLGTQTYICNVNHKPSNTKVDKK[human IgG1 Fc with changes not shown]
light: NFMLTQPHSVSESPGKTVTISCKRNTGNIGSNYVNWYQQHEGSSPTTIIYRNDKRPDGVSDRFSGSIDRSSKSASLTISNLKTEDEADYFCQSYSSGFIFGGGTKLTVLGQPKAAPSVTLFPPSSEELQANKATLVCLISDFYPGAVTVAWKADSSPVKAGVETTTPSKQSNNKYAASSYLSLTPEQWKSHRSYSCQVTHEGSTVEKTVAPTECS
heavy 2: QVQLVESGGGLVQPGGSLRLSCSVSGIDLSSNPMIWVRQAPGKGLQYIGIIDTDGSTYYADWAKGRFTISKDSTTVYLQINSPRAEDTAVYYCARRLHGSSNGYYDDLWGQGTLVTVSSGGGGSGGGGSGGGGSGGGGSDGQMTQSPSSVSASVGDRVTITCQASQSIYSYLSWYQQKPGQRPKLLIYKASTLASGVPSRFSGSGSGTDFTLTISSVQPEDFATYYCQQGYTVTNVDKNTFGGGTKVEIKAAEPKSSDKTHTCPPCPAPEAAGGPSVFLFPPKPKDTLMISRTPEVTCVVVSVSHEDPEVKFNWYVDGVEVHNAKTKPREEQYNSTYRVVSVLTVLHQDWLNGKEYKCKVSNKALPAPIEKTISKAKGQPREPQVYVLPPSRDELTKNQVSLLCLVKGFYPSDIAVEWESNGQPENNYLTWPPVLDSDGSFFLYSKLTVDKSRWQQGNVFSCSVMHEALHNHYTQKSLSLSPG
B2: v38403 (other)
heavy 1: NPPTFSPALLVVTEGDNATFTCSFSNTSESFVLNWYRMSPSNQTDKLAAFPEDRSQPGQDARFRVTQLPNGRDFHMSVVRARRNDSGTYLCGAISLAPKAQIKESLRAELRVTEEAAAKEAAAKEVQLVESGGGLVQPGGSLRLSCAASGVTFNYYGMSWIRQAPGKGLEWVASITSSGGRIYYPDSVKGRFTISRENTQKTLYLQMNSLRAEDTAVYYCTLDGRDGWVAYWGQGTLVTVSSASTKGPSVFPLAPSSKSTSGGTAALGCLVKDYFPEPVTVSWNSGALTSGVHTFPAVLQSSGLYSLSSVVTVPSSSLGTQTYICNVNHKPSNTKVDKK[human IgG1 Fc with changes not shown]
light: B1 light
heavy 2: [about 100 residues not shown]GGSGGGSGGGSGGGSGGGSG[about 120 residues not shown][about 250 residues not shown]
notes: CD3 x Her2 Fab x scFv Fc, wildtype (WT) PD-1 attached to CD3 HC
B3: v38405 (other)
heavy 1: NPPTFSPALLVVTEGDNATFTCSFSNTSESFRLVWHRESPGYETDTLASFPEDRSTPLPDARFRVTQLPNGRDFHMSVVRARRNDSGTYVCGAIAFHPVIQIKESLRAELRVTEEAAAKEAAAKEVQLVESGGGLVQPGGSLRLSCAASGVTFNYYGMSWIRQAPGKGLEWVASITSSGGRIYYPDSVKGRFTISRENTQKTLYLQMNSLRAEDTAVYYCTLDGRDGWVAYWGQGTLVTVSSASTKGPSVFPLAPSSKSTSGGTAALGCLVKDYFPEPVTVSWNSGALTSGVHTFPAVLQSSGLYSLSSVVTVPSSSLGTQTYICNVNHKPSNTKVDKK[human IgG1 Fc with changes not shown]
light: B1 light
heavy 2: [about 100 residues not shown]GGSGGGSGGGSGGGSGGGSG[about 120 residues not shown][about 250 residues not shown]
B4: v38404 (other)
heavy 1: NPPTFSPALLVVTEGDNATFTCSFSNTSESFVLNWYRMSPSNQTDKLAAFPEDRSQPGQDARFRVTQLPNGRDFHMSVVRARRNDSGTYLCGAISLAPKLQIKESLRAELRVTEEAAAKEAAAKEVQLVESGGGLVQPGGSLRLSCAASGVTFNYYGMSWIRQAPGKGLEWVASITSSGGRIYYPDSVKGRFTISRENTQKTLYLQMNSLRAEDTAVYYCTLDGRDGWVAYWGQGTLVTVSSASTKGPSVFPLAPSSKSTSGGTAALGCLVKDYFPEPVTVSWNSGALTSGVHTFPAVLQSSGLYSLSSVVTVPSSSLGTQTYICNVNHKPSNTKVDKK[human IgG1 Fc with changes not shown]
light: B1 light
heavy 2: [about 100 residues not shown]GGSGGGSGGGSGGGSGGGSG[about 120 residues not shown][about 250 residues not shown]
B5: v38400 (other)
heavy 1: [about 120 residues not shown]AAAKEAAAKEVQLVESGGGLVQPGGSLRLSCAASGVTFNYYGMSWIRQAPGKGLEWVASITSSGGRIYYPDSVKGRFTISRENTQKTLYLQMNSLRAEDTAVYYCTLDGRDGWVAYWGQGTLVTVSSASTKGPSVFPLAPSSKSTSGGTAALGCLVKDYFPEPVTVSWNSGALTSGVHTFPAVLQSSGLYSLSSVVTVPSSSLGTQTYICNVNHKPSNTKVDKK[human IgG1 Fc with changes not shown]
light: B1 light
heavy 2: [about 100 residues not shown]GGSGGGSGGGSGGGSGGGSG[about 120 residues not shown][about 250 residues not shown]
B6: v38732 (other)
heavy 1: NPPTFSPALLVVTEGDNATFTCSFSNTSESFVLNWYRMSPSNQTDKLAAFPEDRSQPGQDARFRVTQLPNGRDFHMSVVRARRNDSGTYLCGAISLAPKAQIKESLRAELRVTEGGGGSGEVQLVESGGGLVQPGGSLRLSCAASGVTFNYYGMSWIRQAPGKGLEWVASITSSGGRIYYPDSVKGRFTISRENTQKTLYLQMNSLRAEDTAVYYCTLDGRDGWVAYWGQGTLVTVSSASTKGPSVFPLAPSSKSTSGGTAALGCLVKDYFPEPVTVSWNSGALTSGVHTFPAVLQSSGLYSLSSVVTVPSSSLGTQTYICNVNHKPSNTKVDKK[human IgG1 Fc with changes not shown]
light: B1 light
heavy 2: B1 heavy 2
notes: CD3 Fab x Cldn18.2 scFv Fc, wildtype (WT) PD-1 attached to HC1 (N-term)
B7: v38731 (other)
heavy 1: NPPTFSPALLVVTEGDNATFTCSFSNTSESFVLNWYRMSPSNQTDKLAAFPEDRSQPGQDARFRVTQLPNGRDFHMSVVRARRNDSGTYLCGAISLAPKLQIKESLRAELRVTEGGGGSGEVQLVESGGGLVQPGGSLRLSCAASGVTFNYYGMSWIRQAPGKGLEWVASITSSGGRIYYPDSVKGRFTISRENTQKTLYLQMNSLRAEDTAVYYCTLDGRDGWVAYWGQGTLVTVSSASTKGPSVFPLAPSSKSTSGGTAALGCLVKDYFPEPVTVSWNSGALTSGVHTFPAVLQSSGLYSLSSVVTVPSSSLGTQTYICNVNHKPSNTKVDKK[human IgG1 Fc with changes not shown]
light: B1 light
heavy 2: B1 heavy 2
B8: v38412 (other)
heavy 1: EVQLVESGGGLVQPGGSLRLSCAASGVTFNYYGMSWIRQAPGKGLEWVASITSSGGRIYYPDSVKGRFTISRENTQKTLYLQMNSLRAEDTAVYYCTLDGRDGWVAYWGQGTLVTVSSASTKGPSVFPLAPSSKSTSGGTAALGCLVKDYFPEPVTVSWNSGALTSGVHTFPAVLQSSGLYSLSSVVTVPSSSLGTQTYICNVNHKPSNTKVDKKVEPKSCDKTHTCPPCPAPEAAGGPSVFLFPPKPKDTLMISRTPEVTCVVVSVSHEDPEVKFNWYVDGVEVHNAKTKPREEQYNSTYRVVSVLTVLHQDWLNGKEYKCKVSNKALPAPIEKTISKAKGQPREPQVYVYPPSRDELTKNQVSLTCLVKGFYPSDIAVEWESNGQPENNYKTTPPVLDSDGSFALVSKLTVDKSRWQQGNVFSCSVMHEALHNHYTQKSLSLSPGGGGGSGQVQLVESGGGLVQPGGSLRLSCSVSGIDLSSNPMIWVRQAPGKGLQYIGIIDTDGSTYYADWAKGRFTISKDSTTVYLQINSPRAEDTAVYYCARRLHGSSNGYYDDLWGQGTLVTVSSGGGGSGGGGSGGGGSGGGGSDGQMTQSPSSVSASVGDRVTITCQASQSIYSYLSWYQQKPGQRPKLLIYKASTLASGVPSRFSGSGSGTDFTLTISSVQPEDFATYYCQQGYTVTNVDKNTFGGGTKVEIK
light: [about 120 residues not shown]GGGSGNFMLTQPHSVSESPGKTVTISCKRNTGNIGSNYVNWYQQHEGSSPTTIIYRNDKRPDGVSDRFSGSIDRSSKSASLTISNLKTEDEADYFCQSYSSGFIFGGGTKLTVLGQPKAAPSVTLFPPSSEELQANKATLVCLISDFYPGAVTVAWKADSSPVKAGVETTTPSKQSNNKYAASSYLSLTPEQWKSHRSYSCQVTHEGSTVEKTVAPTECS
heavy 2: B1 heavy 2
B9: v38422 (other)
heavy 1: NPPTFSPALLVVTEGDNATFTCSFSNTSESFVLNWYRMSPSNQTDALAAFPEDRSQPGQDARFRVTQLPNGRDFHMSVVRARRNDSGTYLCGAASLAPKAQIKESLRAELRVTEGGGGSGEVQLVESGGGLVQPGGSLRLSCAASGVTFNYYGMSWIRQAPGKGLEWVASITSSGGRIYYPDSVKGRFTISRENTQKTLYLQMNSLRAEDTAVYYCTLDGRDGWVAYWGQGTLVTVSSASTKGPSVFPLAPSSKSTSGGTAALGCLVKDYFPEPVTVSWNSGALTSGVHTFPAVLQSSGLYSLSSVVTVPSSSLGTQTYICNVNHKPSNTKVDKK[human IgG1 Fc with changes not shown]
light: B1 light
heavy 2: B1 heavy 2

One experiment has as its target T1, Mouse PD-L1 (mouse, UniProt Q9EP73 in part, limits assumed).
T1 construct: Amine-coupled to a CM5 chip for SPR; also called recombinant mouse PD-L1
T1 sequence (Q9EP73 19-238 limits assumed): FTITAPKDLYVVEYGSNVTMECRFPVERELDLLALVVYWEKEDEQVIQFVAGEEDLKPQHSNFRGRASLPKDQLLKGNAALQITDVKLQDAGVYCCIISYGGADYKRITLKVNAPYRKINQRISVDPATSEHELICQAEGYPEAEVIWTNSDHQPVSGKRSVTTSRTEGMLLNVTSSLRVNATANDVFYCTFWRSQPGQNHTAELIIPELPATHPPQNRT
The experiment is described as follows: SPR, PD-L1 amine-coupled, variant as analyte, 1:1 model. A general note: SPR reads the build-up and loss of mass on a sensor chip optically.
On to B1, for which binding was characterised by a dissociation constant (Kd) of 5.2 nM.

With B2, the Kd (usually the free concentration of one partner at which half of the binding sites on the other are occupied at equilibrium, for simple one-to-one binding) is > 1000 nM.

With B3, binding was put at a Kd of 1.7 nM.

As to B4, the dissociation constant (Kd) was 300 nM.

B5 came in with an equilibrium dissociation constant (Kd) of 9.4 nM.

The target of the next experiment is T2, Cynomolgus monkey PD-L1 (cynomolgus monkey, UniProt G7PSE7 19-239).
T2 construct: Amine-coupled to a CM5 chip for SPR; also called recombinant cynomolgus monkey PD-L1
T2 sequence (G7PSE7 entry or part of it): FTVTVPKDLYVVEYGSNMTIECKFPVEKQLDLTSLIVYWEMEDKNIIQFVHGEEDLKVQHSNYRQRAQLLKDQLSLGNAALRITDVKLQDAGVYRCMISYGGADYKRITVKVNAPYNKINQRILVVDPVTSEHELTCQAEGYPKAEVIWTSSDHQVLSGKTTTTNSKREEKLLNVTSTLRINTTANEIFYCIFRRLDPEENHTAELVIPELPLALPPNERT
Described as above.
Turning to B1, the affinity, expressed as Kd, was 2.8 nM.

B2: the Kd is > 1000 nM.

Take B3: the Kd amounted to 62 nM.

B4 showed a Kd of 330 nM.

In the case of B5, the Kd is 1.2 nM.

A further experiment addresses T3, Human PD-L1 (human, UniProt Q9NZQ7 in part).
T3 construct: Amine-coupled to a CM5 chip for SPR; also called recombinant human PD-L1
The description is as above.
For the molecule B1, the Kd stood at 2.8 nM.

For the molecule B3, binding was characterised by a dissociation constant (Kd) of 39 nM.

B4 gave a Kd of 110 nM.

The molecule B5 yielded a Kd of 1.3 nM.

The target in a further experiment is T3, Human PD-L1. The description is as above. This is another data set of the same source.
T3 sequence (Q9NZQ7 19-239 limits assumed): as the sequence (G7PSE7 entry or part of it) above, with T33A, S34A, N62S, Q68R, R82Q, L173F, A185T, I192T, L215H counted along it
With B6, the affinity, expressed as Kd, was 440 nM.

In turn, B7 registered an equilibrium dissociation constant (Kd) of 120 nM.

B8 came in with an equilibrium dissociation constant (Kd) of 6.7 nM.

In another experiment the target is Human CD3 (recombinant) (human). Nature of the experiment: SPR, CD3 amine-coupled, variant as analyte, 1:1 model.
B6: the Kd was found to be 30 nM.

Take B7: the Kd was 94 nM.

With B9, the equilibrium dissociation constant (Kd) stood at 4 nM.

For B8, the Kd came to 110 nM.
